The results in this text go back to patent publication US20250361299A1 (published 2025).

Experiment [1] addresses Recombinant human EGFR (human, UniProt P00533 fragment). In words: ELISA; with uPA. A general note: ELISA stands for enzyme-linked immunosorbent assay.
The target of experiment [2] is T1, Human CD3 protein (human, UniProt P07766 23-126).
T1 chain: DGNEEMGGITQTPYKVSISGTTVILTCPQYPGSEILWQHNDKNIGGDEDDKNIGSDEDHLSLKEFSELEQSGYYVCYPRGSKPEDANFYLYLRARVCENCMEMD
In words: ELISA; with uPA.

As usually defined, the EC50 is the concentration needed to bring the measured effect to its halfway point.

B1: 1.4.3-Pa proBiTE after uPA digestion (bispecific antibody)
heavy: SDNHGGSEVQLVESGGGLVQPGGSLRLSCAASGFTFNTYAMNWVRQAPGKGLEWVARIRSKYNNYATYYADSVKGRFTISRDDSKNTLYLQMNSLRAEDTAVYYCARHGNFGSSYVSYFAYWGQGTTVTVSSGGGSSGGGGSGGGGSQVQLQESGPGLVKPSETLSLTCTVSGGSVSSGDYYWTWIRQSPGKGLEWIGHIYYSGNTNYNPSLKSRLTISIDTSKTQFSLKLSSVTAADTAIYYCVRDRVTGAFDIWGQGTMVTVSSASTKGPSVFPLAPSSKSTSGGTAALGCLVKDYFPEPVTVSWNSGALTSGVHTFPAVLQSSGLYSLSSVVTVPSSSLGTQTYICNVNHKPSNTKVDKKVEPKS[human IgG1 Fc with T366L Y407H (EU numbers) cut from this listing]
light: EIVVTQSPATLSVSPGERATLSCRSSTGAVTTSNYANWVQQKPGQAPRGLIGGANKRAPGVPARFSGSLSGDEATLTISSLQSEDFAVYYCALWYSNLWVFGQGTKLEIKGGGGSGGGGSGGGGSDIQMTQSPSSLSASVGDRVTITCQASQDISNYLNWYQQKPGKAPKLLIYDASNLETGVPSRFSGSGSGTDFTFTISSLQPEDIATYFCQHFDHLPLAFGGGTKVEIKRTVAAPSVFIFPPSDEQLKSGTASVVCLLNNFYPREAKVQWKVDNALQSGNSQESVTEQDSKDSTYSLSSTLTLSKADYEKHKVYACEVTHQGLSSPVTKSFNRGE[human IgG1 Fc with T366L Y407H (EU numbers) cut from this listing]
As for B1, the EC50 is 0.138 µg/mL in experiment [1] and 0.0443 µg/mL in experiment [2].
